The chains are these.
T1: RBFOX1 RRM (Homo sapiens, UniProt Q9NWB1 109-208)
T1 sequence: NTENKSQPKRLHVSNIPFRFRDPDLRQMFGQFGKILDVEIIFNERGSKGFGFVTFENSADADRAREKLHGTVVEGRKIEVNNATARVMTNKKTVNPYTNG

B1: UUUUGUG (DNA:RNA)
RNA: GGGAGACCGGAAUUCAGAUUGUCCUUUUGUGUUAAAUCCCGUCGUAGCCACCA
DNA 1: CAATCTGAATTCCGGTCTCCC
DNA 2: TGGTGGCTACGACGGGATT
B2: UUAUACG (DNA:RNA)
RNA: B1 RNA with U27A, G29A, U30C
DNA 1: CAATCTGAATTCCGGTCTCCC
DNA 2: TGGTGGCTACGACGGGATT
B3: ACGUAGG (DNA:RNA)
RNA: B1 RNA with U25A, U26C, U27G, G29A, U30G
DNA 1: CAATCTGAATTCCGGTCTCCC
DNA 2: TGGTGGCTACGACGGGATT
B4: AGGGACA (DNA:RNA)
RNA: GGGAGACCGGAAUUCAGAUUGUCCAGGGACAUUAAAUCCCGUCGUAGCCACCA
DNA 1: CAATCTGAATTCCGGTCTCCC
DNA 2: TGGTGGCTACGACGGGATT
B5: UGAACCA (DNA:RNA)
RNA: B4 RNA with A25U, G27A, G28A, A29C
DNA 1: CAATCTGAATTCCGGTCTCCC
DNA 2: TGGTGGCTACGACGGGATT
B6: AUAUCAC (DNA:RNA)
RNA: B1 RNA with U25A, U27A, G29C, U30A, G31C
DNA 1: CAATCTGAATTCCGGTCTCCC
DNA 2: TGGTGGCTACGACGGGATT
B7: CAUUCAC (DNA:RNA)
RNA: B1 RNA with U25C, U26A, G29C, U30A, G31C
DNA 1: CAATCTGAATTCCGGTCTCCC
DNA 2: TGGTGGCTACGACGGGATT
B8: GCGGGCG (DNA:RNA)
RNA: B4 RNA with A25G, G26C, A29G, A31G
DNA 1: CAATCTGAATTCCGGTCTCCC
DNA 2: TGGTGGCTACGACGGGATT
B9: UGAUGAC (DNA:RNA)
RNA: B1 RNA with U26G, U27A, U30A, G31C
DNA 1: CAATCTGAATTCCGGTCTCCC
DNA 2: TGGTGGCTACGACGGGATT
B10: UCGCUCC (DNA:RNA)
RNA: B4 RNA with A25U, G26C, G28C, A29U, A31C
DNA 1: CAATCTGAATTCCGGTCTCCC
DNA 2: TGGTGGCTACGACGGGATT
B11: CAGCACA (DNA:RNA)
RNA: B4 RNA with A25C, G26A, G28C
DNA 1: CAATCTGAATTCCGGTCTCCC
DNA 2: TGGTGGCTACGACGGGATT
B12: GAUGUCC (DNA:RNA)
RNA: B4 RNA with A25G, G26A, G27U, A29U, A31C
DNA 1: CAATCTGAATTCCGGTCTCCC
DNA 2: TGGTGGCTACGACGGGATT
B13: AGUUUGU (DNA:RNA)
RNA: B4 RNA with G27U, G28U, A29U, C30G, A31U
DNA 1: CAATCTGAATTCCGGTCTCCC
DNA 2: TGGTGGCTACGACGGGATT
B14: UAGAAGU (DNA:RNA)
RNA: B4 RNA with A25U, G26A, G28A, C30G, A31U
DNA 1: CAATCTGAATTCCGGTCTCCC
DNA 2: TGGTGGCTACGACGGGATT
B15: GUCACAA (DNA:RNA)
RNA: B4 RNA with A25G, G26U, G27C, G28A, A29C, C30A
DNA 1: CAATCTGAATTCCGGTCTCCC
DNA 2: TGGTGGCTACGACGGGATT
B16: AGAGCUA (DNA:RNA)
RNA: B4 RNA with G27A, A29C, C30U
DNA 1: CAATCTGAATTCCGGTCTCCC
DNA 2: TGGTGGCTACGACGGGATT
B17: UCGUAGU (DNA:RNA)
RNA: B4 RNA with A25U, G26C, G28U, C30G, A31U
DNA 1: CAATCTGAATTCCGGTCTCCC
DNA 2: TGGTGGCTACGACGGGATT
B18: CUAAAAA (DNA:RNA)
RNA: B4 RNA with A25C, G26U, G27A, G28A, C30A
DNA 1: CAATCTGAATTCCGGTCTCCC
DNA 2: TGGTGGCTACGACGGGATT
B19: GAGUGCU (DNA:RNA)
RNA: B4 RNA with A25G, G26A, G28U, A29G, A31U
DNA 1: CAATCTGAATTCCGGTCTCCC
DNA 2: TGGTGGCTACGACGGGATT
B20: AGGUUUU (DNA:RNA)
RNA: B4 RNA with G28U, A29U, C30U, A31U
DNA 1: CAATCTGAATTCCGGTCTCCC
DNA 2: TGGTGGCTACGACGGGATT
B21: GCGGGUU (DNA:RNA)
RNA: B4 RNA with A25G, G26C, A29G, C30U, A31U
DNA 1: CAATCTGAATTCCGGTCTCCC
DNA 2: TGGTGGCTACGACGGGATT
B22: CCCGUUA (DNA:RNA)
RNA: B4 RNA with A25C, G26C, G27C, A29U, C30U
DNA 1: CAATCTGAATTCCGGTCTCCC
DNA 2: TGGTGGCTACGACGGGATT
B23: ACAUCAA (DNA:RNA)
RNA: B4 RNA with G26C, G27A, G28U, A29C, C30A
DNA 1: CAATCTGAATTCCGGTCTCCC
DNA 2: TGGTGGCTACGACGGGATT
B24: CUGAAAC (DNA:RNA)
RNA: B4 RNA with A25C, G26U, G28A, C30A, A31C
DNA 1: CAATCTGAATTCCGGTCTCCC
DNA 2: TGGTGGCTACGACGGGATT
B25: CCAGUAC (DNA:RNA)
RNA: B4 RNA with A25C, G26C, G27A, A29U, C30A, A31C
DNA 1: CAATCTGAATTCCGGTCTCCC
DNA 2: TGGTGGCTACGACGGGATT
B26: GUGCGAG (DNA:RNA)
RNA: B1 RNA with U25G, U27G, U28C, U30A
DNA 1: CAATCTGAATTCCGGTCTCCC
DNA 2: TGGTGGCTACGACGGGATT
B27: AGAAGCC (DNA:RNA)
RNA: B4 RNA with G27A, G28A, A29G, A31C
DNA 1: CAATCTGAATTCCGGTCTCCC
DNA 2: TGGTGGCTACGACGGGATT
B28: AAGAGGA (DNA:RNA)
RNA: B4 RNA with G26A, G28A, A29G, C30G
DNA 1: CAATCTGAATTCCGGTCTCCC
DNA 2: TGGTGGCTACGACGGGATT
B29: ACGAACA (DNA:RNA)
RNA: B4 RNA with G26C, G28A
DNA 1: CAATCTGAATTCCGGTCTCCC
DNA 2: TGGTGGCTACGACGGGATT
B30: UAAGCUG (DNA:RNA)
RNA: B1 RNA with U26A, U27A, U28G, G29C
DNA 1: CAATCTGAATTCCGGTCTCCC
DNA 2: TGGTGGCTACGACGGGATT
B31: AAGGAAA (DNA:RNA)
RNA: B4 RNA with G26A, C30A
DNA 1: CAATCTGAATTCCGGTCTCCC
DNA 2: TGGTGGCTACGACGGGATT

Positions count from the first letter of the chain named. This is one part of the list.

This test concerns the target T1, RBFOX1 RRM. Description: EMSA; HiTS-Eq, 1 nM pool, 10 min; buffer printed only for the single-RNA assays: 10 mM Tris pH 7.5, 150 mM NaCl, 3.4 mM EDTA, 0.001% NP-40, 30 C. As to conditions: tags: His6 N-terminal (pET28a); label: 5' 32P. The essentials: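 Purified RbFox RRM (wild type or mutant) was equilibrated for 10 min in 50 µL with 1 nM of a 5′-radiolabelled pool of RNA with 7 randomized nucleotides, its flanks annealed to DNA oligonucleotides, across increasing protein concentrations. Free RNA was separated by 8% native PAGE, excised, reverse-transcribed, PCR-barcoded and sequenced on an Illumina HiSeq 2500. Relative association constants came from read-count changes of each variant against the control reaction, normalised to the cognate motif.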
(In general: In EMSA bound probe runs differently from free probe, usually more slowly.)
With B1, the binding signal was 0.0302 KA relative to UGCAUGU.

With B2, the binding signal is 0.00855 KA relative to UGCAUGU.

With B3, the binding signal was 0.00998 KA relative to UGCAUGU.

B4: the binding signal is 0.00777 KA relative to UGCAUGU.

As to B5, the binding signal was 0.00574 KA relative to UGCAUGU.

With B6, the binding signal was 0.00152 KA relative to UGCAUGU.

As for B7, the binding signal is 0.00217 KA relative to UGCAUGU.

On to B8, for which the binding signal was 0.0182 KA relative to UGCAUGU.

B9: the binding signal was 0.0158 KA relative to UGCAUGU.

Consider B10, for which the binding signal is 0.0108 KA relative to UGCAUGU.

B11: the binding signal is 0.00422 KA relative to UGCAUGU.

Consider B12, for which the binding signal is 0.0161 KA relative to UGCAUGU.

Take B13: the binding signal was 0.0142 KA relative to UGCAUGU.

Consider B14, for which the binding signal is 0.00918 KA relative to UGCAUGU.

Take B15: the binding signal was 0.00457 KA relative to UGCAUGU.

On to B16, for which the binding signal was 0.00515 KA relative to UGCAUGU.

Regarding B17, the binding signal is 0.00796 KA relative to UGCAUGU.

For the molecule B18, the binding signal is 0.000629 KA relative to UGCAUGU.

On to B19, for which the binding signal is 0.0186 KA relative to UGCAUGU.

B20: the binding signal was 0.0127 KA relative to UGCAUGU.

On to B21, for which the binding signal is 0.0192 KA relative to UGCAUGU.

As for B22, the binding signal is 0.000809 KA relative to UGCAUGU.

Consider B23, for which the binding signal was 0.00158 KA relative to UGCAUGU.

As for B24, the binding signal was 0.00729 KA relative to UGCAUGU.

For the molecule B25, the binding signal is 0.00559 KA relative to UGCAUGU.

On to B26, for which the binding signal is 0.0171 KA relative to UGCAUGU.

As for B27, the binding signal is 0.0075 KA relative to UGCAUGU.

Regarding B28, the binding signal was 0.00231 KA relative to UGCAUGU.

In the case of B29, the binding signal is 0.00276 KA relative to UGCAUGU.

With B30, the binding signal is 0.0162 KA relative to UGCAUGU.

For the molecule B31, the binding signal was 0.00363 KA relative to UGCAUGU.

The record behind these values is paper PMC9911399, “Two distinct binding modes provide the RNA-binding protein RbFox with extraordinary sequence specificity”.
